This note sets out measurements from the RNAGym collection of RNA variant scans (doi:10.7554/elife.90254).

To fix the notation:
B1: LINE1-full (parent)
chain: UACGUAGGUGGUUUUCCCCUGAUAGUGCUAAGGGGGCCUGGAAGUUUGGACUGGGCAGAGCUCAACACAGCGUGGCAAAGUGGCUGUGGCUAGACUGCCUCUCUGGAUUCCUCGUCACUCAGCAGGGCAUCUCUGAGAGAAAUGCC

Read counts are not given, so values of variants with three or more changes are uncertain.

This data set covers variants of B1. Kind of data set: self-cleavage, relative activity (ratio to wild type); higher = more cleavage; in vitro, sequencing; the parent is a self-cleaving ribozyme.
As to A79G G127C A140G, the self-cleavage stood at 2.55.

Turning to U73C U81G G125A, the self-cleavage worked out at 1.85. With U73C A124G A138G, the self-cleavage stood at 0.64. A77G A117U A140G: the self-cleavage was 1.07. Consider U73A G80A A129G A140G, for which the self-cleavage worked out at 2.39. As to A69G C84U A136G, the self-cleavage turned out to be 0.18. Take A78G A107G U109A: the self-cleavage was found to be 1.55. For A78G U81C A141G, the self-cleavage was found to be 1.28. Turning to U73C C84A A141G, the self-cleavage is 0.07. A77G G88A U104C: the self-cleavage was 0.24. Consider A69G U130C A142G, for which the self-cleavage was 1.18. Turning to U73C G86A A140G, the self-cleavage was 0.1. U73C A78C U102C: the self-cleavage was 0.92.

As to A78G U119C A138G, the self-cleavage turned out to be 1.09.

On to C71A U73C A140G, for which the self-cleavage came out at 0.08. For A69G U104C C128U U132A, the self-cleavage was 0.77. Take G72A U102A U108A A136G: the self-cleavage was 1.09. As for A69U A79U A107G, the self-cleavage was 0.1. Take U73A A142U U143G: the self-cleavage stood at 1.91.

On to U73C U87C C145A, for which the self-cleavage is 0. On to C71G U73A A141G, for which the self-cleavage amounted to 0.07. With A79U A121G A140G, the self-cleavage was determined as 1.32. With U73A A92G U109C the figure was 0.1. With G75C U85A U143C the figure was 0.1; with A77U A94G U100A, 0.11; with U73C C128U A136G, 2.16. As to A69U A79U G89C U134G C146A, the self-cleavage turned out to be 0.02. As for U73C U96A A117G, the self-cleavage worked out at 0.21. For the variant U73A U108C A129C, the self-cleavage amounted to 1.6. Consider U73C A92U A136G, for which the self-cleavage is 2.69. With A69U A117U U130C, the self-cleavage was 0. As to A79G U108A U112A, the self-cleavage came to 1.89.

Take A77G A142G G144A: the self-cleavage was 1.22. For A79U U81C C118U, the self-cleavage came to 0.89. Turning to A79G A121U U132C, the self-cleavage is 1.84. With G70A U96C A124G the figure was 0.03. To U73C A78G A94U U102C A138G belongs 0.53; to G74A U81G G83A, 0.91; to A77G U96A U115C, 0.11. For A79G U96A G137A, the self-cleavage is 0.12. Consider A78U U115C U119C U130C U132C A138G, for which the self-cleavage amounted to 0. With U73A C90G U96A U134C A140U the figure was 0.02; with U73C A121G A141U, 2.3; with A77G U96A U143C, 0.05. In the case of A77G U85C A136G, the self-cleavage came to 0.

As to A79G U112C U134A, the self-cleavage is 0.37. Regarding A69G U87G A117G U119A, the self-cleavage was determined as 0. For the variant U73C U96A C103A, the self-cleavage is 0.06. In the case of A77U U85A A94G U109C U119C, the self-cleavage was 0. As to G70C U104C U134A, the self-cleavage worked out at 0.11. Take A79G C128G U130C: the self-cleavage was determined as 1.02.

For the variant A77G U115A U130A, the self-cleavage amounted to 1.84. As to U73A U87A A121G, the self-cleavage stood at 0.11.

For the variant A69G A92G C103A, the self-cleavage came out at 0.13.

Consider G72U U96C G105A U134C, for which the self-cleavage is 0.05.

With A78G G86A A107G G126U, the self-cleavage was found to be 0.02.

Turning to A77U U130C U143A, the self-cleavage is 1.8.

For A69U U73C U119C, the self-cleavage came to 0.22.

With A69G C110U U130A, the self-cleavage came out at 0.66. Take A77U U85C U134A A136G: the self-cleavage was found to be 0.18. In the case of C76U A78G A79G, the self-cleavage amounted to 2.2.

For A78U U108C A121G, the self-cleavage was found to be 1.62. As for U73A A124G U132C, the self-cleavage is 0.59. With A77G A129U A138U the figure was 1.31; with A69G U132C A142G, 0.49.

As to A79G U91G A136G, the self-cleavage amounted to 0.09.

For the variant C71U A77C A140G, the self-cleavage worked out at 0.33.

In the case of U73C G89A U108C U115C, the self-cleavage came to 0. For the variant A69G U87C G105A, the self-cleavage came out at 0.11. Turning to A77G U132C A141G, the self-cleavage worked out at 1.11.

As for A77U A94G A129G U132A, the self-cleavage was 0.46. To C76U A107C U134C belongs 2.94; to A79G U102G A129U, 0; to G75A U112C U132A, 1.57.

A69U A138U A142G: the self-cleavage was determined as 0.08. On to U73A U115C U130C A140U, for which the self-cleavage is 1.17. As to A79U C120A A140G, the self-cleavage is 1.53. With U73C A117U A142G, the self-cleavage came to 2.03. Turning to A77U G89A U132C, the self-cleavage worked out at 0.06. As to A69G A121U A124G A136G, the self-cleavage amounted to 1.62. To A78G A92G U130C belongs 0.29; to U73C G89A G114A, 0.01. Take A69G U81C U119C: the self-cleavage came to 0. For A79G C113A A121G, the self-cleavage came to 1.55. With C76U U102C U119A the figure was 2.45; with A69G U85C G144A, 0.42; with A79G U81A C110A, 1.76. In the case of A79G U119G A141G, the self-cleavage was 2.3. On to A78C G122C U130A, for which the self-cleavage was found to be 2.23. For A69G C113A A141G, the self-cleavage was determined as 0.37.

Take A77U U87C C90A U132A: the self-cleavage came out at 0.02. In the case of A78C U100C U112C A138G, the self-cleavage was 0.92. Consider A69G G83A U132C A138G, for which the self-cleavage stood at 0.19. Regarding A78U U91C U134C A141G, the self-cleavage stood at 1.2. With A77U A124U A136G the figure was 1.11; with C76G U115C A117G, 2.3; with G74A U108C A129U, 1.04. To C76U A79G U85C A117G belongs 0.9; to G72C U100C A138G A140G, 1.8. Consider A69U C116U C145U, for which the self-cleavage is 0.05. To A69G A124G A140G belongs 0; to A77U U85C U87A A129G, 0.12; to A69U U115C U134C, 0. As for C71U U73C U81C A117U, the self-cleavage was 1.01. On to A79G U130C G135A, for which the self-cleavage came out at 0.77. With A77U U132A U134A the figure was 0.41; with U73C G82U U85A, 0.24; with U73C A79G A121U, 0.4. With A69G U112A U134G the figure was 0.51. For A69G U130A A138G, the self-cleavage was found to be 0.56. In the case of A69G U104C U112A, the self-cleavage was found to be 0.42. With U73A A121U G137U the figure was 0.63; with A77C U109C U130A, 1.16. As to C76U U85C U102C A138G, the self-cleavage was 0.1. To A79G U130C U143C belongs 2.45; to C71U U96A A107U, 0.03; to A78G U100C A142G, 0.86. For the variant U73C C76U A94G G105A G139U, the self-cleavage worked out at 0.47. G75A G114A A129G A142C: the self-cleavage stood at 1.46.

Take A77G U85A U104C: the self-cleavage turned out to be 0.13. As for A79G U81A U104C, the self-cleavage was 1.97. On to U73C U119C U134G, for which the self-cleavage came out at 1.53.

Turning to A69G U130A A140U, the self-cleavage came out at 0.12. In the case of C71U G86A U108C A129U, the self-cleavage was 0.02. On to A69U G106A C123A A124G, for which the self-cleavage was 0.05.

Turning to A77U U91C A129G, the self-cleavage turned out to be 0.39.

In the case of A77G A121G A124G, the self-cleavage was found to be 0.26. Regarding A79G G97C U108C A124U A140G, the self-cleavage came out at 0.76. As for U73C A77G U130C, the self-cleavage worked out at 2.3. A78G U102A A129U: the self-cleavage worked out at 1.45.

With A78U U85C U119A, the self-cleavage worked out at 0.27. With C71U U102C U119C A129U, the self-cleavage turned out to be 1.72.

For the variant A69G G74A C120A A121G, the self-cleavage came out at 0.47.

Take A69U U115C U143C: the self-cleavage was determined as 0.11. With A69U G127U A138G the figure was 0.05; with A79G A92G U143C, 0. To U73G G93A A141G belongs 0.01; to A78G A117C C146U, 1.92; to A77G C90U A107G, 0.1.

On to U73A A117G U132C, for which the self-cleavage is 0.88.

Consider C71U U91C A129G A141U A142G, for which the self-cleavage was 0.59.

For A78G A79G A107G U115A, the self-cleavage was determined as 0.61. As for U73C C95U A141G, the self-cleavage stood at 0.04. As to A69G U85G U100C, the self-cleavage turned out to be 0. With U73A U132C U134C U143A the figure was 1.46.

With A69G C84A U130C, the self-cleavage amounted to 0.

Take A78G U81A U130C A138G: the self-cleavage worked out at 0.98. In the case of A69G U85A U112A G122U U130C A138G, the self-cleavage came out at 0. On to A77U A94G A138U, for which the self-cleavage was found to be 0.22. To A69G G114A A142G belongs 0.3; to U73C A78G U91A G125U, 0.42; to A77U U87C U91C U112C, 0. With G75C U81C U132C the figure was 0; with A77G A78G U100A, 0.39; with G72U U91C U143A, 0.53. For A77U U119C A142G, the self-cleavage came to 1.72. With A79G C110U A117U the figure was 1.81.

For G74C G122A U132A, the self-cleavage stood at 1.64. Regarding U73A G97A A141G, the self-cleavage worked out at 0.05. For the variant A69G U73G U112A G137A, the self-cleavage came to 0.92. As for A78C A129G U132C A142G, the self-cleavage was found to be 1.9.

With G72A A77G A140G, the self-cleavage is 1.69. To U73C U91A U96C A141G belongs 0; to A77G A94G U100A, 0.18; to U73A U109A U134C, 1.35.

A69G U115C A138G: the self-cleavage is 0.

As to A78U A94G A107C, the self-cleavage worked out at 0.
